Laboratory results from patent publication US12286632B2, “Rationally-designed synthetic peptide shuttle agents for delivering polypeptide cargos from an extracellular space to the cytosol and/or nucleus of a target eukaryotic cell, uses thereof, methods and kits relating to same” (Feldan Bio Inc., priority 2016, dated 2025).
Where two headings read alike, the source gives them in different places. Part of at least one peptide drawing is inferred or uncertain, most often the ends. Some entries share one result that the patent states for a list of compounds. Bridge positions count the residues as written; N and C are the ends. Ends that are not written are not given here. I, II: the chains in the order shown.

How the values were obtained:
HeLa cells [1] = experiment: GFP-NLS protein transduction assay (flow cytometry: Pos cells %, viability %, relative fluorescence intensity; microscopy); settings: GFP-NLS 5 μM, 1 hour; for GFP-NLS transduction efficiency / intracellular delivery (flow cytometry, in words): Tables 5.2 and 5.3; for Mean (%) (n = 3): HeLa, shuttle 3 μM
primary myoblasts = experiment: Calcein endosomal escape assay, quantification by flow cytometry (mean counts, Mean Factor); assay type: cell-based, Human; settings: for Mean Factor: fold-increase relative to untreated calcein-loaded cells
Description: (§1) Calcein is a membrane-impermeable fluorescent molecule that is readily internalized by cells when administered to the extracellular medium. Its fluorescence is […] and calcein self-quenches at higher concentrations. Once internalized, calcein becomes sequestered at high concentrations in cell endosomes and can be visualized by fluorescence microscopy as a punctate pattern. Following endosomal leakage, calcein is released to the cell cytoplasm and this release can be visualized by fluorescence microscopy as a diffuse pattern.
(§2) The cells were allowed to attach by incubating overnight in appropriate growth media, as described in Example 1. The next day, the media in wells was removed and replaced with 50 μL of fresh media without serum containing 62.5 μg/mL (100 μM) of calcein, except for HEK293A (250 μg/mL, 400 μM). At the same time, the shuttle agent(s) to be tested was added at a predetermined concentration. The plate was incubated at 37° C. for 30 minutes. The cells were washed with 1× PBS (37° C.) and fresh media containing 5-10% serum was added. The plate was incubated at 37° C. for 2.5 hours. The cells were washed with 1× PBS and detached using trypsinization.
(§3) Untreated calcein-loaded cells were used as a control to distinguish cells having a baseline of fluorescence due to endosomally-trapped calcein from cells having increased fluorescence due to release of calcein from endosomes. Fluorescence signal means (“mean counts”) were analyzed for endosomal escape quantification. In some cases, the “Mean Factor” was calculated, which corresponds to the fold-increase of the mean counts relative to control (untreated calcein-loaded cells). […] The cellular mortality was monitored with the percentage of cells in the total events scanned. When it became lower than the control, it was considered that the number of cellular debris was increasing due to toxicity and the assay was discarded.

HeLa cells [2] = experiment: FITC-labeled anti-tubulin antibody transduction assay (flow cytometry, cell viability, microscopy); settings: 1 hour, shuttle 3.5 μM
Description: The delivery and microscopy protocols are described in Example 3.
HeLa cells were cultured and tested in the protein transduction assay described in Example 3.1. […] The cells were subjected to flow cytometry analysis as described in Example 3.3.

HeLa cells [3] = assay type: cell-based, Human; settings: GFP 5 μM, 1 hour; for GFP transduction efficiency / intracellular delivery (flow cytometry, in words): Tables 3.3 and 3.4, FIGS. 8 and 9; for Mean (%) (n = 3): HeLa, shuttle 3 μM
HeLa cells [4] = assay type: cell-based; settings: for Mean counts (calcein fluorescence): calcein 100 μM; for Mean Factor: fold-increase relative to untreated calcein-loaded cells
Description: as §1, §2, §3

HeLa cells [5] = experiment: Plasmid DNA (pEGFP-C1) transfection by peptides (% cells with GFP signal, cell viability); settings: DNA transfection in HeLa cells using peptides; pEGFP-C1 plasmid
HeLa cells [6] = experiment: Transduction score (highest % transduction efficiency x % viability / 1000), GFP or GFP-NLS cargo; assay type: cell-based, Human; settings: GFP or GFP-NLS as cargo, scale 0 to 10
[7] = FITC-labeled anti-tubulin antibody 0.5 μM, HeLa

Row | Compound | GFP-NLS transduction efficiency / intracellular delivery (flow cytometry, in words) (HeLa cells [1]) | Mean (%) (n = 3) (HeLa cells [1]; Table 5.2/FIG. 14) | Mean (%) (n = 3) (HeLa cells [1]; Table 5.3/FIG. 15) | FIG. 19A Mean (%) (n = 3) (HeLa cells [2]; [7]) | GFP transduction efficiency / intracellular delivery (flow cytometry, in words) (HeLa cells [3]) | Mean (%) (n = 3) (HeLa cells [3]; Table 3.3/FIG. 8) | Mean (%) (n = 3) (HeLa cells [3]; Table 3.4/FIG. 9) | Mean % cells with GFP signal (±St. Dev.; n = 3) (HeLa cells [5]) | transduction score (HeLa cells [6]) | further results
1 | CC[C@H](C)[C@H](NC(=O)[C@H](CCCCN)NC(=O)[C@H](CCCCN)NC(=O)[C@H](Cc1ccccc1)NC(=O)[C@H](CC(C)C)NC(=O)[C@H](CCCCN)NC(=O)[C@H](Cc1c[nH]c2ccccc12)NC(=O)[C@@H](N)CCCCN)C(=O)NCC(=O)N[C@@H](C)C(=O)N[C@H](C(=O)N[C@@H](CC(C)C)C(=O)N[C@@H](CCCCN)C(=O)N[C@H](C(=O)N[C@@H](CC(C)C)C(=O)N[C@H](C(=O)N[C@H](C(=O)NCC(=O)N[C@@H](CCCNC(=N)N)C(=O)N[C@@H](CCC(N)=O)C(=O)N[C@H](C(=O)N[C@@H](CCCCN)C(=O)N[C@H](C(=O)N[C@@H](Cc1c[nH]c2ccccc12)C(=O)N[C@@H](Cc1ccccc1)C(=O)N[C@@H](CCC(N)=O)C(=O)N[C@@H](CC(N)=O)C(=O)N[C@@H](CCCNC(=N)N)C(=O)N[C@@H](CCCNC(=N)N)C(=O)N[C@@H](CCSC)C(=O)N[C@@H](CCCCN)C(=O)N[C@@H](Cc1c[nH]c2ccccc12)C(=O)N[C@@H](CCCCN)C(=O)N[C@@H](CCCCN)C(=O)N[C@@H](CS)C(=O)O)[C@@H](C)CC)[C@@H](C)CC)[C@@H](C)O)[C@@H](C)O)C(C)C)C(C)C [CM18-Penetratin-Cys] | no GFP-NLS intracellular delivery was observed | 0.43% | 0.68% | 53.05% | no GFP intracellular delivery was observed | 0.59% | 0.81% |  |  | Mean counts (calcein fluorescence) (primary myoblasts; peptide 5 μM, calcein 100 μM): 65 636; Mean Factor (primary myoblasts; peptide 5 μM): 2.2; antibody intracellular delivery (flow cytometry, in words) (HeLa cells [2]; antibody 0.5 μM): facilitate intracellular delivery of an FITC-labeled anti-tubulin antibody; peptide concentrations associated with an increase in cell toxicity (HeLa cells [4]; HeLa cells, in some cases): above 10 μM; Mean counts (calcein fluorescence) (HeLa cells [4]; peptide 4 μM): 116 873; Mean Factor (HeLa cells [4]; peptide 4 μM): 1.9; Mean counts (calcein fluorescence) (HeLa cells [4]; peptide 5 μM): 134 506; Mean Factor (HeLa cells [4]; peptide 5 μM): 2.2; Mean Factor (HeLa cells [4]; peptide 5 μM, listed as CM18 − Penetratin-Cys): 4.7; Mean counts (calcein fluorescence) (HeLa cells [4]; peptide 8 μM): 174 233; Mean Factor (HeLa cells [4]; peptide 8 μM): 2.8
2 | CC[C@H](C)[C@H](NC(=O)[C@@H](NC(=O)[C@H](Cc1ccccc1)NC(=O)[C@@H](N)CCCCN)[C@@H](C)O)C(=O)N[C@H](C(=O)N[C@@H](Cc1ccccc1)C(=O)N1CCC[C@H]1C(=O)N[C@@H](Cc1c[nH]cn1)C(=O)N[C@@H](CC(N)=O)C(=O)N[C@@H](CCC(N)=O)C(=O)N[C@@H](CCCCN)C(=O)NCC(=O)N[C@@H](CC(N)=O)C(=O)N[C@@H](Cc1c[nH]c2ccccc12)C(=O)N[C@@H](CCCCN)C(=O)N[C@@H](CC(N)=O)C(=O)N[C@H](C(=O)N1CCC[C@H]1C(=O)N[C@@H](CO)C(=O)N[C@@H](CC(N)=O)C(=O)N[C@@H](Cc1ccc(O)cc1)C(=O)N[C@@H](Cc1c[nH]cn1)C(=O)N[C@@H](Cc1ccc(O)cc1)C(=O)N[C@@H](CS)C(=O)N1CCC[C@H]1C(=O)N[C@@H](Cc1ccc(O)cc1)C(=O)N[C@@H](C)C(=O)N[C@@H](CCCNC(=N)N)C(=O)N[C@@H](C)C(=O)N[C@@H](C)C(=O)N[C@@H](C)C(=O)N[C@@H](CCCNC(=N)N)C(=O)N[C@@H](CCC(N)=O)C(=O)N[C@@H](C)C(=O)N[C@@H](CCCNC(=N)N)C(=O)N[C@@H](C)C(=O)O)C(C)C)C(C)C [VSVG-PTD4] |  |  |  |  |  |  |  | 0.05 ± 0.01% | 0.35 | 
3 | GLFEALLELLESLWELLLEAYARAAARQARA [JST-PTD4] |  |  |  |  |  |  |  | 0.04 ± 0.01% | 0.083 | 
4 | I: KWKLFKKIGAVLKVLTTGRQIKIWFQNRRMKWKKC / II: KWKLFKKIGAVLKVLTTGRQIKIWFQNRRMKWKKC (disulfide I:35-II:35) [dCM18-Penetratin-Cys] | no GFP-NLS intracellular delivery was observed | 0.85% | 0.84% | 50.23% | no GFP intracellular delivery was observed | 0.73% | 0.92% |  |  | Mean counts (calcein fluorescence) (primary myoblasts; peptide 2.5 μM): 71 547; Mean Factor (primary myoblasts; peptide 2.5 μM): 2.4; FIG. 19B Cell viability (%) (± St. Dev.; n = 3) (HeLa cells [2]; [7]): 74 ± 9.0%; Mean counts (calcein fluorescence) (HeLa cells [4]; peptide 2 μM): 128 363; Mean Factor (HeLa cells [4]; peptide 2 μM): 2.1
